From PubChem BioAssay AID1508624 (National Center for Advancing Translational Sciences (NCATS), 2021) come the findings set out here.

Structures are written as SMILES. The campaign covered roughly 48,000 compounds. About 120 (0.25%) were called active. Another 4% or so got no clear call; they are omitted. The call rests on the fitted dose curve; in most records, active means well fitted activation curve with a large enough effect; inconclusive means small, poorly fitted or top-dose-only effect, or another doubt; inactive means no such curve, though single readings can be large or run the other way. The list shows a part of the results.

This assay can be described thus: Primary qHTS for Identification of Small Molecule Activators of Huntingtin-Antisense Promoter Activity. Further: nearly all actives have a fitted effect of over 55% in size. The settings on record: HEK293 HTT-AS promoter firefly luciferase reporter, 24 h; series mostly up to 57.5 µM; activity change, positive = activation: at the top concentration. The procedure, abridged: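 HEK293 luciferase promoter-reporter cells (2,500/well) plated 24 h, then compounds added at up to 57.5 uM final for 24 h at 37 °C. Firefly luminescence by Dual-Glo, normalized to vehicle (0%) and zero RLU (-100%).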
(In general: In qHTS, concentration-response curves come from the screen itself.)
As to `Cc1cc(C)c2sc(NC(=O)c3ccc(S(=O)(=O)N4CCOCC4)cc3)nc2c1`, the “activity change, positive = activation” value is inactive: -37.2%.
On to `COc1ccc(C(=O)NCC(c2ccc(N(C)C)cc2)N2CCc3ccccc32)cc1` (centres undefined), for which the “activity change, positive = activation” value is inactive: -17.7%.
The figure for `Cn1c(=O)n(C)c2cc(N3CCOCC3)c(NC(=O)c3c(F)cccc3F)cc21` is inactive: -7.35%.
The figure for `CCc1cc2c(-c3ccccc3)cc(=O)oc2c2c1OCN(Cc1ccc(F)cc1)C2` is inactive: -34.6%.
Next, `COc1cc(OC)c(NC(=O)Nc2c(C)n(C)n(-c3ccccc3)c2=O)cc1Cl`: inactive: -1.34%; `O=C(NC1CC(=O)N(c2cccc(F)c2)C1)C(c1ccccc1)c1ccccc1` (centres undefined): inactive: -19.8%; `CCC(Oc1ccccc1)C(=O)Nc1ccc(OCc2cc(=O)n3ccccc3n2)cc1` (centres undefined): inactive: 14.9%.
`CCC1C(=O)OCC1Cc1cncn1C` (centres undefined): the “activity change, positive = activation” value was inactive: -5.62%.
The figure for `Cc1cn([C@@H]2C[C@@H](O)[C@H](CO)O2)c(=O)[nH]c1=O` is inactive: -16.1%; for `COC(=O)c1ccccc1NC(=O)c1ccc2c(=O)n3c(nc2c1)CCCCC3` it is inactive: -4.42%; for `CCOc1ccc(CNC(=O)C2Cc3ccccc3N2C(=O)CC)cc1` (centres undefined) it is inactive: -4.92%.
Next, `CC(C)(C)c1ccc(C(=O)N2CCC(c3nc(-c4ccc(S(=O)(=O)N5CCCC5)cc4)no3)CC2)cc1`: inactive: -23.9%; `CCN(CC)CCNC(=O)c1ccc(CSc2nc3ccncc3n2Cc2cccc(F)c2)cc1`: inactive: -5.26%; `CCOc1ccc(-c2cc3c(=O)n(Cc4nc(-c5ccc(OC(C)C)cc5)oc4C)ccn3n2)cc1Cl`: inactive: -23.7%.
Next, `O=C(Cn1nc(N2CCN(c3ccccc3)CC2)ccc1=O)Nc1ccc(F)cc1F`: inactive: -11.4%; `COc1ccc(CNC(=O)C2CCCN(C(=O)N3CCOc4ccccc43)C2)cc1` (centres undefined): inactive: -30.1%.
On to `COc1cc(C2SC[C@H]3C(=O)N(c4ccccc4)C(=O)N23)cc(OC)c1OC` (some centres undefined), for which the “activity change, positive = activation” value was inactive: -32.6%.
Turning to `CCCN(CCC)S(=O)(=O)c1ccc2c(c1)N(CC(=O)NCc1ccc(F)cc1Cl)C(=O)CS2`, the “activity change, positive = activation” value was inactive: -36.8%.
Next, `Cc1ccccc1-c1nc(CN2CCC(C(=O)NCCc3ccccc3)CC2)c(C)o1`: inactive: -24.7%.
On to `O=C(CCCn1c(=O)c2ccccc2n(CC(=O)Nc2cccc(C(F)(F)F)c2)c1=O)NCc1ccc2c(c1)OCO2`, for which the “activity change, positive = activation” value was inactive: -11.9%.
Next, `Cc1cc2ccccc2n1CCNC(=O)c1cc(C(F)(F)F)cc(C(F)(F)F)c1`: inactive: -27.5%.
Next, `COCCn1c(SCC(=O)c2ccc(C)cc2C)nc2cc(C(=O)NC3CCCC3)ccc2c1=O`: inactive: 6.02%.
Next, `Cn1nnc2c(N3CCN(c4ccccc4)CC3)ncnc21`: inactive: 30.4%; `CCOc1ccc(N(CC)S(=O)(=O)N2CCCC(C(=O)Nc3cc(Cl)ccc3C)C2)cc1` (centres undefined): inactive: -33.3%; `CC(=O)Nc1ccc(S(=O)(=O)Nc2ccc([N+](=O)[O-])cc2)cc1`: inactive: -5.06%.
As to `CC(C)COc1ccc(C2=NC(c3ccncc3)=Nc3ccc(F)cc3N2)cc1`, the “activity change, positive = activation” value was inactive: 4.12%.
The figure for `CC(C)c1ccc(NC(=O)c2cc(S(=O)(=O)N3CCCCC3)cn2C)cc1` is inactive: -11.2%; for `COc1ccccc1CNc1nc2ccc(Cl)cc2n2cnnc12` it is inactive: -3.4%.
In the case of `CN1CCN(C(=O)Cn2c(-c3cccs3)cc3cc(Cl)ccc32)CC1`, the “activity change, positive = activation” value was inactive: -27.3%.
Next, `Cc1ccc(C(=O)Nc2ccc(S(=O)(=O)O)c3cc(S(=O)(=O)O)cc(S(=O)(=O)O)c23)cc1NC(=O)c1cccc(NC(=O)Nc2cccc(C(=O)Nc3cc(C(=O)Nc4ccc(S(=O)(=O)O)c5cc(S(=O)(=O)O)cc(S(=O)(=O)O)c45)ccc3C)c2)c1`: “inactive”; `Cc1ccccc1OC(=O)CSc1nnc(-c2ccc3c(c2)OCO3)o1`: inactive: -36.4%; `Cc1ccc(Cl)cc1N1CCN(C(=O)C2CCN(S(=O)(=O)c3cccc4nonc34)CC2)CC1`: inactive: -42%.
The figure for `COC(=O)c1cc(NC(=O)c2nn(C)c3c2CSc2ccccc2-3)cc(C(=O)OC)c1` is inactive: 1.43%.
Next, `CN(Cc1ccc(F)cc1)S(=O)(=O)c1nnc(NC(=O)c2ccccc2Br)s1`: inactive: -38.9%; `O=C(Cn1c(=O)n(Cc2ccc(Cl)cc2)c(=O)c2cccnc21)Nc1ccccc1C(F)(F)F`: inactive: -9.63%; `Cc1ccc(NC(=O)CNC(=O)Cn2c(C)cc3ccccc3c2=O)cc1F`: inactive: -4.48%.
As to `Cc1ccc(-n2nc3c(=O)n(CCCC(=O)NCc4ccccc4C)nc(C)c3c2C)cc1`, the “activity change, positive = activation” value was inactive: -14.7%.
The figure for `COCCNC(=O)c1c(-c2ccccc2)c(-c2ccccc2)nn(C)c1=O` is inactive: -7.09%; for `Cc1ccc([N+](=O)[O-])cc1S(=O)(=O)N1CCn2cccc2C1c1ccccc1F` (centres undefined) it is inactive: -10.9%; for `CCOC(=O)c1c(C)c(-c2ccccc2)n(CC(=O)NCc2cccc(OC)c2)c1C` it is inactive: -6.82%.
The figure for `O=C(NCc1cccn1Cc1ccccc1)Nc1cccc(C(F)(F)F)c1` is inactive: -30.5%; for `Cn1c(=O)oc2cc(S(=O)(=O)N3CCC(C(=O)NCc4ccccc4)CC3)ccc21` it is inactive: -16.7%; for `CC(=O)c1ccc(NC(=O)Cn2cnc3nc4c(cc3c2=O)CC(C)CC4)cc1` (centres undefined) it is inactive: 22%.
Consider `CCOc1cccc(C2c3[nH]c4ccccc4c3CCN2C(=O)c2ccccc2F)c1` (centres undefined), for which the “activity change, positive = activation” value is inactive: -29.9%.
In the case of `CCOc1ccccc1C(=O)Nc1ccc(S(=O)(=O)Nc2onc(C)c2C)cc1`, the “activity change, positive = activation” value was inactive: -18.9%.
The figure for `CCOC(=O)c1c(SCC(=O)Nc2nc3ccccc3s2)nc(=O)[nH]c1C` is inactive: -19.1%; for `CCC(Sc1nnc(C)n2c1cc1sccc12)C(=O)Nc1ccccc1F` (centres undefined) it is inactive: -39.7%; for `CCc1cc(C(N)=S)ccn1` it is “inactive”.
Turning to `Cc1cccc(-c2nc3scc(CCNS(=O)(=O)c4c(C)noc4C)n3n2)c1`, the “activity change, positive = activation” value is inactive: -22%.
The figure for `CCOC(=O)c1cnc2cc(C(F)(F)F)ccc2c1N1CCN(c2cccc(Cl)c2)CC1` is inactive: -23.5% [at 11.5 µM, percent change from vehicle, -100% = no light]; for `CCOc1cc(CNC(=O)c2ccc(Cn3c(=O)c4cccn4c4cccnc43)cc2)ccc1OC` it is inactive: -17.8%; for `Cc1ccc(NC(=O)CSc2nc3ccc(NC(=O)c4cccs4)cc3s2)cc1` it is inactive: -11.7%.
In the case of `O=C(NCc1cccn1Cc1ccccc1)Nc1ccc(Br)cc1F`, the “activity change, positive = activation” value is inactive: -21.3%.
Next, `CC(=O)Nc1c(I)c(NC(C)=O)c(I)c(C(=O)O)c1I`: inactive: -8.53%; `COc1cccc(N2CCN(c3ncnc4c3c(-c3ccccc3)cn4-c3ccc(C)cc3)CC2)c1`: inactive: -9.92%.
Regarding `CCCc1cc(=O)[nH]c2nnc(SCC(=O)Nc3ccc(OC)cc3)n12`, the “activity change, positive = activation” value is inactive: 0.138%.
Next, `O=C(COCc1cc(-c2ccc(F)cc2)on1)Nc1cccc(Cl)c1Cl`: inactive: 4%.
The figure for `O=C(Nc1ccccc1C(=O)OCc1cc(=O)n2ccsc2n1)c1ccc(Cl)cc1` is inactive: 27%; for `Cc1ccc(S(=O)(=O)c2nnn3c2nc(NC(C)c2ccccc2)c2sccc23)cc1` (centres undefined) it is inactive: 9.27%.
